# Reference: the supplement of paper PMC12632987
# Over roughly 1,800 sequences, “median log2 fold change of GCK-ALFA target abundance (FLAG IP / Myc IP barcode read proportion)” has its median near 0.14; the lowest 2% begin near -0.84. This is one part of the list.
# T1: TRAF2, Q12933
# T1 chain: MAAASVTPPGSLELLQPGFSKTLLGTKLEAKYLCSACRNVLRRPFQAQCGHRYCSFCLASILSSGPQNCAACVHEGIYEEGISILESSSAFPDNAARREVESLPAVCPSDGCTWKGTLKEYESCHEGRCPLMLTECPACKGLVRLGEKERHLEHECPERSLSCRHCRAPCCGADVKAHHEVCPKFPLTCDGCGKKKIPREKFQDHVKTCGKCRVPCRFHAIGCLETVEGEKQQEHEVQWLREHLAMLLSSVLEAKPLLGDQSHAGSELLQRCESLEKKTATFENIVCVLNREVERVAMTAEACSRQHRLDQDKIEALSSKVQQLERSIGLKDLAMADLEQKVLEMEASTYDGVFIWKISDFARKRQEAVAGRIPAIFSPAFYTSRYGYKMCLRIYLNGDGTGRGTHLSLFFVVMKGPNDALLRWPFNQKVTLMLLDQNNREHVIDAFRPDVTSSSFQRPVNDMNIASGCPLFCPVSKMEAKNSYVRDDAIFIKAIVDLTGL
# B1: traf2_out_11_155_740 (protein)
# chain: EKKLELNQKMNDEIMDLFDEARKKADEIVERAAKEHPEHKEELEALKEKTKGFSYRSYILSYIELFKELGLEEEAEELEKLLEETQKKANEIVKKTEKEL
# B2: traf2_out_11_155_670 (protein)
# chain: SEKQKLNNELVNELTEIADELKEKVEKILKEAAAAHPEHAEELAAVIASGKTLSGRSFARLAAQKFRELGLEEEAKKVEELLEEAQKKMNEVVKKYEEKL
# B3: traf2_out_20_3_2163 (protein)
# chain: EELEKEAEKELEKAIELLKKAAELSDPETAKRLEKLIKRLKASRKLSPSDRLVVVSEVRREVLRLAEEARAAGKEELAKLLEEAADALNRLAQLLYKIIE
# B4: traf2_out_11_169_866 (protein)
# chain: EEKEKNRKLIDFALEVEDEAKKKLKEFALALAKEYGLDVEEVKKIFEENKNSSLSAIASALIKYFKSKGKEEAAEEVLKKHEELKEEINKKVSEFIKELE
# B5: traf2_out_11_169_785 (protein)
# chain: EEAEKNRKFNDFALEKEDEAKEKLKKFALKLAKEAGLDVAEVEKIFEDNKGKSLSAIAAALVAYFTAKGKEDAAAKVLEKYEELKEEINKAGSEFMKELE
# B6: traf2_out_14_149_1258 (protein)
# chain: SATAAKKAALERAAAIFREIADTLAAALAAGSTDVDLAALRAKVDEARAILKAQGFVLGSLLQLEELLAATTTATPATLERLLALARRAAESAEVLAEML
# B7: traf2_out_13_95_1100 (protein)
# chain: SRELAEKIMEIADKMLEESEEILEELLKKAKEKGVAEEEIQEALYLARTRSINEAIHLLKELSKKYPELKEELDEAIEKLEELKREAGRKVAELIKEEEE
# B8: traf2_out_13_95_1083 (protein)
# chain: SAEANERIMEIADRMLEEVDRILEELAKKVADDPEMKAAVEEALHLARTHGINAAIHLLEELAKANPEYKELLDAAIEELRRIKREAGRRVAEILREEEE
# B9: traf2_out_15_180_1331 (protein)
# chain: MTEEELEKRIKLASEVADKVQDRLDELLAANPELSPEERAALRALARSLLTLLLAGEWEEAEAALAAAEARVSPRAAAVARELYEFIKEEVEKAKKELEA
# B10: traf2_out_18_3_1906 (protein)
# chain: LEEKRKKLSDEIDKIVDEAEAYAREVLDELAARHPEVAAELARLRAVLDAGGGAFGVLEALAELARRLGEEELAARIEEFIREKRKEMQELVDEYEKLIK
# B11: traf2_out_17_162_1569 (protein)
# chain: EELERRLRELRERLRELEERLREFEEEEKEFPKMSYEELTDRLVEVSELRREARELAEELRRLGEELGEEELRELVERAEEIAERLNRIANKIYKEIEKK
# B12: traf2_out_18_117_1783 (protein)
# chain: SEREKIIKELKKIAEETGKAASRLGKLMEENWEKLTPEQKSEAMDVLADLSEVRREALLLIHKIETENIPVEEAKKELEKLKKKAEEALKKAEEVIKKIE
# B13: traf2_out_3_89_2298 (protein)
# chain: SPEQAARLAEARARMDAYLRGFEKSARRVAREMVADGASLETLRGVLEAARTALLEVLRESAEEAGLSPEDIAALVAEAERRLTEIVERIVAEAEAERAA
# B14: traf2_out_16_104_1387 (protein)
# chain: SAATQAQFDAIIAQLQAIADRANKLANELYKLYLKASPEKKKEISDALVEVSEIKREARQAALAAQAARAAGGDPAAAQATLAKLQERLEKAEKELKELK
# B15: traf2_out_20_3_2160 (protein)
# chain: SELEKKMEEEREKAIELLEKAAELADEETAKKLKELKKKVEESKELSYDDQLVVLSEVRREVRELAEEAREEGKEELAKVLEEAAEALNRAMNLAYKIIQ
# B16: traf2_out_13_95_1149 (protein)
# chain: SAETAAEINAIADEMLDEVEKLLEELLKIAKEKGVPTEPFQKALDLAKYQSVNEAIHLLKELSKKYPELKEEIDKTIEEIEKLKREAGRKVAEVLKKAKA
# B17: traf2_out_3_89_2304 (protein)
# chain: MEERERKIREMEERRDAYIRGFEKSARRVAKEMLEEGMSLETIRGVLEAARTALVEELREEARERGLSEEDIERLSKDAEERLGKIVEEVVKEAEERRKE
# B18: traf2_out_20_3_2156 (protein)
# chain: SALEAAAQAALDRAIALLAEAAALADPETAARLEALRARVEASRSLSPSDRLVVLSEVRREVRALAEEARRAGREELAAVLEAAADALNRAMNLTYQLIQ
# B19: traf2_out_6_156_2405 (protein)
# chain: MLEEIEEETLKEIEELIKELAAASEEKKIAYISKIAGTFYRGLQRARAAGASVEELEAFGKRVLEKTKELLDEEGLPQDVKDLILSSLNAVFDVALAEAR
# Target: T1, TRAF2, Q12933
# Assay: median log2 fold change of GCK-ALFA target abundance (FLAG IP / Myc IP barcode read proportion) (log2 ratio); each designed protein is fused to an ALFA-tag nanobody in HEK293 cells to bring the named protein to FLAG-tagged glucokinase (GCK); Myc marks an untargeted standard; higher = target protein stabilised (more abundant)
# Settings: target protein: 3xFLAG-MCP-GCK-ALFA reporter; HEK293 landing pad (RPLP)
# Outline: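 The readout is target abundance, the per-binder median log2 ratio of FLAG to Myc barcode read proportions. It came from HEK293 landing-pad cells carrying a recombined ALFA-nanobody-fused binder library, induced with 2 μg mL^−1 doxycycline and transfected with a plasmid for a FLAG-tagged target and a Myc-tagged standard. After 48 h, lysates were immunoprecipitated with anti-FLAG and anti-Myc, and circular RNA barcodes were reverse transcribed, amplified and sequenced. Each barcode needed a proportion of at least 10^−7 in both replicates and each binder at least 3 barcodes per replicate, a pseudocount of 10^−6 was added, and the replicates were pooled.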
row,Binder,median log2 fold change
1,B1,0.142
2,B2,0.263
3,B3,0.302
4,B4,0.473
5,B5,0.0519
6,B6,0.341
7,B7,-0.367
8,B8,-0.117
9,B9,0.153
10,B10,0.00452
11,B11,0.176
12,B12,0.183
13,B13,-0.699
14,B14,0.0322
15,B15,0.184
16,B16,-0.199
17,B17,-0.744
18,B18,0.0138
19,B19,0.151
